Experimental data reported in PubChem BioAssay (NCI).
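Growth conditions: 96-well plates. Treatment: test compound, 48 hours, 5 concentrations. Analysis: linear interpolation between bracketing concentrations; unreached endpoints set to highest concentration. TGI marks complete inhibition of growth.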

How the values were obtained:
Assay in all cases: NCI anticancer screen, dose series, 48 h
[1] = test system: HOP-62 NSCLC
[2] = test system: NCI/ADR-RES ovarian
[3] = test system: EKVX NSCLC
[4] = test system: UO-31 renal
[5] = test system: SK-MEL-2 melanoma
[6] = test system: MCF7 breast
[7] = test system: SK-MEL-5 melanoma
[8] = test system: SF-295 CNS
[9] = test system: BT-549 breast
[10] = test system: OVCAR-5 ovarian
[11] = test system: KM12 colon
[12] = test system: HOP-92 NSCLC
[13] = test system: RXF 393 renal
[14] = test system: U251 CNS
[15] = test system: CCRF-CEM leukemia
[16] = test system: MOLT-4 leukemia
[17] = test system: SF-539 CNS
[18] = test system: HCC-2998 colon
[19] = test system: NCI-H23 lung
[20] = test system: SK-OV-3 ovarian
[21] = test system: OVCAR-8 ovarian
[22] = test system: MDA-MB-435
[23] = test system: HL-60(TB) leukemia
[24] = test system: SR leukemia
[25] = test system: UACC-62 melanoma
[26] = test system: HCT-15 colon
[27] = test system: UACC-257 melanoma
[28] = test system: NCI-H522 lung
[29] = test system: OVCAR-3 ovarian
[30] = test system: K-562 leukemia
[31] = test system: HT29 colon
[32] = test system: IGROV1 ovarian
[33] = test system: A549 NSCLC
[34] = test system: M14 melanoma
[35] = test system: SW-620 colon
[36] = test system: PC-3 prostate
[37] = test system: RPMI-8226 leukemia
[38] = test system: SK-MEL-28 melanoma
[39] = test system: TK-10 renal
[40] = test system: SNB-19 CNS
[41] = test system: SNB-75 CNS
[42] = test system: NCI-H460 lung
[43] = test system: HS 578T breast
[44] = test system: OVCAR-4 ovarian
[45] = test system: SF-268 CNS
[46] = test system: ACHN renal
[47] = test system: NCI-H226 lung

Question: Which TGI [1] does the source give for `O=C(/C=C/c1ccccc1)Nc1ccccc1F` here?
Answer: > 100 µM

Question: And the TGI [2]?
Answer: > 100 µM

Question: And the TGI [3]?
Answer: > 100 µM

Question: And the TGI [4]?
Answer: > 100 µM

Question: And the TGI [5]?
Answer: > 100 µM

Question: What about the TGI [6] of the same molecule?
Answer: > 100 µM

Question: What about the TGI [7] of the same molecule?
Answer: > 100 µM

Question: And the TGI [8]?
Answer: > 100 µM

Question: What about the TGI [9] of the same molecule?
Answer: > 100 µM

Question: What about the TGI [10] of the same molecule?
Answer: > 100 µM

Question: And the TGI [11]?
Answer: > 100 µM

Question: And the TGI [12]?
Answer: > 100 µM

Question: What about the TGI [13] of the same molecule?
Answer: > 100 µM

Question: And the TGI [14]?
Answer: > 100 µM

Question: And the TGI [15]?
Answer: > 100 µM

Question: What about the TGI [16] of the same molecule?
Answer: 51.2 µM

Question: And the TGI [17]?
Answer: > 100 µM

Question: And the TGI [18]?
Answer: > 100 µM

Question: What about the TGI [19] of the same molecule?
Answer: > 100 µM

Question: And the TGI [20]?
Answer: > 100 µM

Question: What about the TGI [21] of the same molecule?
Answer: > 100 µM

Question: And the TGI [22]?
Answer: > 100 µM

Question: And the TGI [23]?
Answer: 85.2 µM

Question: What about the TGI [24] of the same molecule?
Answer: > 100 µM

Question: And the TGI [25]?
Answer: > 100 µM

Question: What about the TGI [26] of the same molecule?
Answer: > 100 µM

Question: And the TGI [27]?
Answer: > 100 µM

Question: What about the TGI [28] of the same molecule?
Answer: > 100 µM

Question: What about the TGI [29] of the same molecule?
Answer: > 100 µM

Question: And the TGI [30]?
Answer: > 100 µM

Question: And the TGI [31]?
Answer: > 100 µM

Question: What about the TGI [32] of the same molecule?
Answer: > 100 µM

Question: What about the TGI [33] of the same molecule?
Answer: > 100 µM

Question: And the TGI [34]?
Answer: > 100 µM

Question: And the TGI [35]?
Answer: > 100 µM

Question: What about the TGI [36] of the same molecule?
Answer: > 100 µM

Question: What about the TGI [37] of the same molecule?
Answer: > 100 µM

Question: And the TGI [38]?
Answer: > 100 µM

Question: What about the TGI [39] of the same molecule?
Answer: > 100 µM

Question: And the TGI [40]?
Answer: > 100 µM

Question: What about the TGI [41] of the same molecule?
Answer: > 100 µM

Question: What about the TGI [42] of the same molecule?
Answer: > 100 µM

Question: And the TGI [43]?
Answer: > 100 µM

Question: What about the TGI [44] of the same molecule?
Answer: > 100 µM

Question: What about the TGI [45] of the same molecule?
Answer: > 100 µM

Question: What about the TGI [46] of the same molecule?
Answer: > 100 µM

Question: And the TGI [47]?
Answer: > 100 µM
